{"source": "PubChem BioAssay AID686979", "about": "(National Center for Advancing Translational Sciences (NCATS), 2013)", "note": "Hit rate of the full screen: of about 420,000 compounds, about 50,000 (12%) were called active. This list was built around the results that the source calls inconclusive (neither active nor inactive); the mix of calls is not that of the screen. Calls follow the shape of the dose curve; as a rule, active = well fitted inhibition curve with a large enough effect; inconclusive = small, poorly fitted or top-dose-only effect; inactive = flat fitted curve, though single readings scatter. Potencies of inconclusive entries are left out as doubtful fits. % is scaled to controls: 0 for no effect and ±100 for the full control effect; potency is read from the fitted curve at half-maximal effect; tags tell the direction and shape of the fitted curve.", "data": [{"test": "qHTS for Inhibitors of human tyrosyl-DNA phosphodiesterase 1 (TDP1): qHTS in cells in presence of CPT; also: nearly all actives have a fitted effect of over 55% in size", "details": "chicken DT40 Tdp1-/-;hTDP1 cells + 20 nM CPT, ATP luminescence, 48 h; activity change, negative = growth inhibition: at 46.2 µM (top of the series) unless noted", "in_short": "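Cell growth measured by CellTiter-Glo luminescence after a minimum 48 h, 37 C compound exposure with 20 nM CPT in Tdp1-knockout DT40 cells stably expressing hTDP1, seeded 400/well; qHTS titration format.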", "values": [{"compound": "COc1cccc(/C=N/NC(=O)c2ccccc2N(Cc2ccccc2)S(=O)(=O)c2ccccc2)c1OC", "Potency": "active: 23.1 µM"}, {"compound": "COc1ccc(-c2nnn(CC(=O)N(CCCO)C(C(=O)NC3CCCC3)c3ccc(F)cc3)n2)cc1", "note": "(stereo not given)", "activity change, negative = growth inhibition": "inactive: 8.35%"}, {"compound": "O=c1[nH]c(CN2CCc3ccccc3C2)nc2ccccc12", "Potency": "inconclusive [inhibitor, single point]"}, {"compound": "CN(C)S(=O)(=O)c1cc(NC(=O)CSc2nn(-c3ccc(Cl)cc3)c(=S)s2)ccc1Cl", "Potency": "inconclusive [inhibitor, single point]"}, {"compound": "Nn1c(Cc2ccccc2)nc2sc3c(c2c1=O)CCC3", "Potency": "inconclusive [inhibitor, full curve]"}, {"compound": "Cc1nn(C(C)C(=O)NCCc2ccco2)c(=O)c2nn(-c3ccccc3)c(C)c12", "note": "(stereo not given)", "activity change, negative = growth inhibition": "inconclusive: -36.8% [inhibitor]"}, {"compound": "C[C@@H](NC(=O)c1[nH]cnc1C(=O)Nc1ccccc1)c1ccccc1", "Potency": "inconclusive [inhibitor, partial curve, poor fit]"}, {"compound": "COc1ccc(N=C2C(=O)Nc3ccc(C)c(Br)c32)cc1", "Potency": "inconclusive [inhibitor, single point]"}, {"compound": "COc1cccc(OC)c1-c1nn(-c2ncc(C(F)(F)F)cc2Cl)c(=O)o1", "Potency": "inconclusive [inhibitor, single point]"}, {"compound": "Cc1cc(NC(=O)c2cnn3c(C(F)(F)F)cc(-c4ccccc4)nc23)no1", "Potency": "active: 13 µM"}, {"compound": "Cc1ccc(S(=O)(=O)N2CCN(Cc3cc4c(cc3Br)OCCO4)CC2)cc1", "Potency": "inconclusive [inhibitor, single point]"}, {"compound": "COc1ccc2c(c1)c(=O)c(S(=O)(=O)c1ccc(C)c(C)c1)cn2CC(=O)Nc1ccccc1", "activity change, negative = growth inhibition": "inactive: -20.7%"}, {"compound": "COc1ccc(C)cc1N(C)C(=O)Cc1c(C(=O)O)n(C)c2ccccc12", "activity change, negative = growth inhibition": "inactive: -0.372%"}, {"compound": "O=C(Nc1ccccn1)c1ccc(NC(=O)c2ccco2)cc1", "activity change, negative = growth inhibition": "inactive: -25.4%"}, {"compound": "CN(C)C(=O)/C=C\\c1cn(-c2ccccc2)nc1-c1ccc2c(c1)OCCO2", "Potency": "inconclusive [inhibitor, single point]"}, {"compound": "Cc1ccccc1-c1nc(CS(=O)(=O)CC(=O)NC(C)c2ccccc2)c(C)o1", "note": "(stereo not given)", "Potency": "active: 16.4 µM"}, {"compound": "CCN(CCCNC(=O)c1cc2c(=O)n(CC)c3ccccc3c2s1)c1cccc(C)c1", "Potency": "inconclusive [inhibitor, single point]"}, {"compound": "O=C(Nc1cc(F)ccc1F)C1COc2ccccc2C1", "note": "(stereo not given)", "activity change, negative = growth inhibition": "inactive: -21.5%"}, {"compound": "COc1cccc(CN(C)C(=O)c2ccc(Oc3ccccc3)cc2)c1OC", "Potency": "active: 25.9 µM"}, {"compound": "CCc1cccc2cc3c(N)c(C(=O)Nc4ccc(S(=O)(=O)N5CCCC5)cc4)sc3nc12", "Potency": "inconclusive [inhibitor, partial curve]"}, {"compound": "Cc1ccsc1C(=O)OCC(=O)NCCC1=CCCCC1", "activity change, negative = growth inhibition": "inactive: -2.39%"}, {"compound": "N#CCCCSC1=C(C#N)C(c2ccccc2Cl)CC(=O)N1", "note": "(stereo not given)", "activity change, negative = growth inhibition": "inconclusive: -31.1% [inhibitor]"}, {"compound": "COc1cc(-c2noc(C3CC(=O)N(c4ccc5c(c4)OCCO5)C3)n2)cc(OC)c1OC", "note": "(stereo not given)", "Potency": "inconclusive [inhibitor, single point]"}, {"compound": "O=[N+]([O-])c1cccc(-c2nnn(C34CC5CC(CC(C5)C3)C4)n2)c1", "Potency": "inconclusive [inhibitor, single point]"}, {"compound": "Cc1ccc(S(=O)(=O)N(C)c2ccc3c(c2)C(=O)c2ccccc2-3)cc1", "Potency": "active: 16.4 µM"}, {"compound": "O=C(Cc1ccccc1)N1CCCC(c2nc(-c3ccc(S(=O)(=O)N4CCCC4)cc3)no2)C1", "note": "(stereo not given)", "Potency": "inconclusive [inhibitor, single point]"}, {"compound": "Cc1ccc2ncc(C)c(/C=C/c3ccc(N(C)C)cc3)c2c1", "Potency": "inconclusive [inhibitor, single point]"}, {"compound": "O=C(CCn1c(=S)oc2ccccc21)N1CCCCC1", "activity change, negative = growth inhibition": "inactive: 7.46%"}, {"compound": "COc1ccc(Cl)cc1NC(=O)CN(c1cc(C)cc(C)c1)S(=O)(=O)c1c(C)n[nH]c1C", "Potency": "inconclusive [inhibitor, single point]"}, {"compound": "CC(C)(C)c1ccc(CC(=O)N2CCC2(C)C(=O)NS(=O)(=O)c2ccccc2C(F)(F)F)cc1", "note": "(stereo not given)", "activity change, negative = growth inhibition": "inactive: -10.4%"}, {"compound": "CCc1ccc(NC(=O)c2cc3c(=O)n(Cc4cccs4)ccc3nc2C)cc1", "Potency": "active: 16.4 µM"}, {"compound": "CCC1(c2ccccc2)C(=O)N(C(=O)OC(C)(C)C)N1C(=O)OC(C)(C)C", "note": "(stereo not given)", "activity change, negative = growth inhibition": "inactive: 4.23%"}, {"compound": "Cc1ccc(S(=O)(=O)N2CCN(C(=O)c3c(-c4ccccc4)noc3C)CC2)c(C)c1", "Potency": "active: 18.4 µM"}, {"compound": "O=C1CSC2(C(=O)N3CCCc4cccc2c43)N1c1cccc(C(F)(F)F)c1", "note": "(stereo not given)", "Potency": "active: 20.6 µM"}, {"compound": "CCCn1nc(C(=O)OCC(=O)c2ccccc2)c2ccccc2c1=O", "activity change, negative = growth inhibition": "inactive: 11.1%"}, {"compound": "Cc1cc(C)n2c(Nc3ccc4c(c3)OCCO4)c(-c3ccc(F)cc3)nc2n1", "Potency": "inconclusive [inhibitor, single point]"}, {"compound": "COc1ccc(C(=O)Nc2ccc(-n3nncc3-c3ccc(OC)c(OC)c3)cc2)cc1", "Potency": "active: 20.6 µM"}, {"compound": "Cc1ccc(S(=O)(=O)c2nc(-c3ccccc3)oc2N2CCN(c3ccccc3)CC2)cc1", "Potency": "active: 16.4 µM"}, {"compound": "Cc1ccc(S(=O)(=O)N2CCN(C(=O)Cn3c(=O)oc4ccccc43)CC2)c(C)c1", "activity change, negative = growth inhibition": "inactive: -14.2%"}, {"compound": "Cc1ccc(CNc2ccc(-c3nc(-c4ccco4)no3)cc2[N+](=O)[O-])cc1", "activity change, negative = growth inhibition": "inactive: -27.2%"}, {"compound": "CCN(CC)CC(=O)Nc1c(C)cccc1C", "Potency": "inactive"}, {"compound": "CCCC(=O)N(Cc1cc2cccc(C)c2[nH]c1=O)c1ccccc1OC", "Potency": "inconclusive [inhibitor, partial curve, poor fit]"}, {"compound": "OCCC1CN(Cc2cnc(N3CCOCC3)s2)CCN1C1CCCC1", "note": "(stereo not given)", "activity change, negative = growth inhibition": "inactive: 0.936%"}, {"compound": "CCC(=O)Nc1nnc(S(=O)(=O)N(C)Cc2ccco2)s1", "Potency": "inconclusive [inhibitor, single point]"}, {"compound": "O=C(Nc1c2c(nn1-c1ccc(F)cc1)CS(=O)C2)c1ccc(S(=O)(=O)N2CCOCC2)cc1", "note": "(stereo not given)", "activity change, negative = growth inhibition": "inactive: 6.9%"}, {"compound": "O=C1[C@H]2[C@@H](c3ccc(C(F)(F)F)cc3)N[C@]3(CCCN(Cc4ccc(F)cc4)C3=O)[C@H]2C(=O)N1Cc1ccccc1", "Potency": "inconclusive [inhibitor, single point]"}, {"compound": "O=C(CC1NCCc2ccccc21)Nc1ccccc1Cl", "note": "(stereo not given)", "activity change, negative = growth inhibition": "inactive: 0.343%"}, {"compound": "O=C(N/N=C/c1c[nH]c2ccc(Br)cc12)c1ccn(Cc2ccc(Cl)cc2)n1", "Potency": "inconclusive [inhibitor, single point]"}, {"compound": "C=CCN(Cc1nc(-c2ccccc2)no1)C(=O)c1ccoc1C", "Potency": "active: 29.1 µM"}, {"compound": "Cc1ccccc1N1CC(O)(c2ccccc2)[N+]2=C1SCC2", "note": "(stereo not given)", "Potency": "inconclusive [inhibitor, single point]"}, {"compound": "Cc1ccc(C)c(S(=O)(=O)N2CCC3(CC2)OCCN3S(=O)(=O)c2cccs2)c1", "activity change, negative = growth inhibition": "inconclusive: -33.4% [inhibitor]"}, {"compound": "Cc1ccc(Cl)cc1NS(=O)(=O)c1ccc2c(c1)NC(=O)C(C)C(=O)N2", "note": "(stereo not given)", "Potency": "inconclusive [inhibitor, partial curve, poor fit]"}, {"compound": "O=C(Nc1nccs1)C1C2/C=C\\CCCCC21", "note": "(stereo not given)", "Potency": "inconclusive [inhibitor, single point]"}, {"compound": "O=C(NC1CCCCC1)c1cc(S(=O)(=O)N2CCOCC2)ccc1Cl", "activity change, negative = growth inhibition": "inactive: -22.7%"}, {"compound": "COc1ccc(S(=O)(=O)n2ccc(-c3ccc(OCCN(C)c4ccccn4)cc3)n2)cc1", "Potency": "inconclusive [inhibitor, partial curve, poor fit]"}, {"compound": "CCOc1ccc(CNC(=O)Cn2nc(C)c3nn(-c4ccc(Cl)cc4)c(C)c3c2=O)cc1OC", "Potency": "inconclusive [inhibitor, single point]"}, {"compound": "C[C@H](NC(=O)N1CCn2c1nc1ccccc12)C(=O)NC1CC1", "activity change, negative = growth inhibition": "inactive: 0.0261%"}, {"compound": "CNc1cc(-c2cccc(OC)c2F)nc2ccnn12", "Potency": "inconclusive [inhibitor, partial curve]"}, {"compound": "CCc1nc2c(OCc3c(C)noc3C)cccn2c1N(C=O)Cc1ccccc1", "Potency": "inconclusive [inhibitor, single point]"}, {"compound": "COc1ccc(CC2(CO)CCN(Cc3cnn(-c4ccccc4OC)c3)CC2)cc1", "Potency": "inconclusive [inhibitor, single point]"}, {"compound": "O=S(=O)(c1ccc(NC(=S)N2CCCCC2)cc1)N1CCCCC1", "Potency": "inconclusive [inhibitor, single point]"}, {"compound": "Cc1ccc2c(c1)c1c(c(=O)n(-c3ccccc3C)c(=O)n1CC(=O)NCCC1=CCCCC1)n2C", "Potency": "inconclusive [inhibitor, single point]"}, {"compound": "CC(=O)c1cc(-c2ccc(F)cc2)n(CCC(=O)Nc2nc3c(C)cccc3s2)c1C", "Potency": "inconclusive [inhibitor, single point]"}, {"compound": "Cc1ccc(CNC(=O)c2cncc(Br)c2)cc1", "Potency": "inconclusive [inhibitor, single point]"}, {"compound": "COC(=O)c1ccc(CNC(=O)COC(=O)/C=C/c2ccc(O)c(OC)c2)cc1", "Potency": "inconclusive [inhibitor, single point]"}, {"compound": "Cc1ccc(-c2nn(C)c(=O)c3ccccc23)cc1CNC(=O)NC1CCCCC1", "Potency": "inconclusive [inhibitor, single point]"}, {"compound": "O=C(CCS(=O)(=O)Cc1ccccc1)Nc1nncs1", "Potency": "inconclusive [inhibitor, single point]"}, {"compound": "Cc1ccc(CN2CCSc3ccc(C(=O)NCCCN4CCOCC4)cc32)cc1", "Potency": "active: 20.6 µM"}, {"compound": "N=c1c2c(-c3ccccc3)c(-c3ccccc3)n(Cc3ccco3)c2ncn1Cc1ccccc1", "activity change, negative = growth inhibition": "inactive: -26.8%"}, {"compound": "COc1ccc(CNCc2c(C(=O)O)c(C)n(Cc3ccc(Cl)cc3)c2C)c(OC)c1", "Potency": "inconclusive [inhibitor, single point]"}]}]}
